Source: PubChem BioAssay AID894 (National Center for Advancing Translational Sciences (NCATS), 2007)
The campaign covered roughly 150,000 compounds. About 6,500 (4.3%) were called active. This list was built around the results that the source calls inconclusive (neither active nor inactive); the mix of calls is not that of the screen. Calls follow the shape of the dose curve; as a rule, active = well fitted inhibition curve with a large enough effect (not every such curve was filed as active); inconclusive = small, poorly fitted or top-dose-only effect, or another doubt; inactive = no such curve, though single readings can be large or run the other way. Potencies of inconclusive entries are left out as doubtful fits.

molecular target: 15-hydroxyprostaglandin dehydrogenase [NAD(+)] (Homo sapiens) (UniProt P15428); test: qHTS Assay for Inhibitors of HPGD (15-Hydroxyprostaglandin Dehydrogenase); conditions: purified HPGD, NADH fluorescence kinetic, PGE2 substrate; activity change, negative = inhibition: active compounds read low
Summary of the method: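 NADH formation kinetics: reaction with 30 uM PGE2 and 1 mM NAD+ (final), 20 nM enzyme, Tris-HCl pH 8 with Tween 20, after 15 min compound preincubation at room temperature. Fluorescence change, last versus first of five reads.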
% is scaled to controls: 0 for no effect and ±100 for the full control effect; potency is read from the fitted curve at half-maximal effect; tags tell the direction and shape of the fitted curve.

Chain of UniProt P15428 (P15428 whole entry, looked up): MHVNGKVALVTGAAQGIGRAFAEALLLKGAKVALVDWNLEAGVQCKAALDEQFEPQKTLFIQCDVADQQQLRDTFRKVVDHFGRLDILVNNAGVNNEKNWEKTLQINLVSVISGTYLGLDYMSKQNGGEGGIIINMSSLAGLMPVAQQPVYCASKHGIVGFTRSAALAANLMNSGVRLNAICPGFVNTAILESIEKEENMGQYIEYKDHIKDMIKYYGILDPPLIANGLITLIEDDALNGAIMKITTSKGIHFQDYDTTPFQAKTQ

Structure (SMILES) | Potency | activity change, negative = inhibition
CC(C)/C=N/NC(=O)c1cc(Br)ccc1O | inconclusive [inhibitor, partial curve] | 
Cn1c(=O)c2c(nc(CN3CCc4ccccc4C3)n2Cc2cccc(Cl)c2)n(C)c1=O | inconclusive [inhibitor, single point] | 
NC(=O)C1CCN(c2nnnn2-c2ccccc2)CC1 |  | inactive: -6.87%
N#Cc1c(NC(=O)c2cc(C3CC3)on2)sc2c1CCC2 |  | inactive: -27.9%
CCOC(=O)c1cc2n(c1N)-c1ccccc1C2=O | active: 31.6 µM | 
O=c1[nH]c(N2CCc3ccccc32)nc2c1CCCC2 | inconclusive [inhibitor, partial curve] | 
CCOCCCNC(=S)Nc1ccc2nc(N3CCCC3)cc(C)c2c1 | inconclusive [inhibitor, partial curve] | 
C[N+](C)(C)[C@H](Cc1c[nH]c(=S)[nH]1)C(=O)O |  | inactive: -5.04%
O=C(CSc1nnc(-c2ccc(Cl)cc2)n1-c1ccc(Cl)cc1)N/N=C/c1ccco1 |  | inactive: -18.3%
COc1ccc(Cl)cc1-n1c(C)cc(C=O)c1C | active: 14.1 µM | 
N=c1c(C(=O)NC2CCCC2)cc2c(=O)n3ccccc3nc2n1CCN1CCOCC1 | inconclusive [inhibitor, partial curve] | 
CCCCNC(=O)/C(C#N)=C/c1cccnc1 | inconclusive [inhibitor, single point] | 
Cc1ccc(Oc2ccc(/C=N/O)cn2)cc1 |  | inactive: -9.21%
C=C1c2ccccc2O[C@H](C(=O)OCC)[C@@H]1C1CCCCC1 (tested in a mixture with another compound) | inconclusive [inhibitor, partial curve, poor fit] | 
N#C/C(=C/c1ccc(N2CCCCC2)o1)C(=O)Nc1ccc2ccccc2c1 | inconclusive [inhibitor, partial curve] | 
Cc1ccc(OC(=O)c2cccc(S(=O)(=O)N3CCCC3)c2)c(-n2nc3ccccc3n2)c1 | inconclusive [inhibitor, partial curve] | 
COc1ccc(OCc2cccc(C(=O)O)c2)cc1 |  | inactive: -6.88%
O=C(CCn1cnc2ccccc21)N/N=C/c1ccccc1O | inconclusive [inhibitor, partial curve] | 
Cc1ccccc1-c1nc2ccccc2[nH]1 | inconclusive [inhibitor, partial curve] | 
O=C1C=C(c2ccc(Cl)cc2)C(=O)N1Nc1ccccc1 | active: 22.4 µM | 
